Reference: PubChem BioAssay AID760 (NMMLSC, 2007)
Values joined by “and” are separate entries in the source; they are usually repeats but may differ in a detail not shown here. Equal values may be shown once. Hit rate of the full screen: of about 190,000 compounds, about 360 (0.19%) were called active. The inconclusive results got no clear call from the source; some entries with a clear call stand among them for comparison.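 The calls were made as follows: active = GTP binding activity at least 20 points away from 100%, either lowered or raised; inconclusive = signal likely due to the compound's own green fluorescence; inactive = the rest.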

The compounds below were run against Ras-related protein Rab-2A (Canis lupus familiaris) (UniProt P61105) (assay: Rab2 wt fluorescent GTP binding changes, either direction – biochemical, dog, bead-based flow cytometry, multiplex, primary screen (AID 760;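 also: 0% = beads with excess unlabeled GTP and 100% = no-compound control corrected for plate trend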)). Conditions: GST-Rab2 wt beads, Bodipy-GTP binding, at 10 µM.

SMILES	GTP binding activity
COc1ccc(C)cc1-n1nnnc1SCc1cn2ccsc2n1	inactive: 100%
O=C(O)CC/C(=C\c1ccc(N2CCCC2)c([N+](=O)[O-])c1)c1nc2ccccc2s1	active: 74%
CC(C(=O)NN=C(c1ccccc1)c1ccccc1)N1CCCC1 (stereo not drawn)	inconclusive: 94%
CCCOc1ccc(N2C(=O)CC(N(O)c3ccccc3)C2=O)cc1 (stereo not drawn)	inconclusive: 105%
Cc1ccc(C)c(NC(=O)C(c2ccccc2)N2CCOCC2)c1 (stereo not drawn)	inactive: 94%
O=C(NCC(c1cccs1)N1CCOCC1)c1ccc(Cl)c([N+](=O)[O-])c1 (stereo not drawn)	inactive: 102%
Clc1ccccc1/C=C/C=N/Nc1nc(N2CCOCC2)nc(N2CCOCC2)n1	inactive: 97%
CCN(C(=O)COC(=O)/C=C/c1ccc(O)c(OC)c1)C1CCS(=O)(=O)C1 (stereo not drawn)	inactive: 93%
COC(=O)c1c(NC(=O)CN2CCN(c3cccc(Cl)c3)CC2)sc(C)c1C	inactive: 99%
Cc1nnc(NC(=O)CSc2ccc(-c3ccco3)nn2)s1	inconclusive: 94%
COc1cc2c(cc1OC)C1Cc3ccc(OC)c(OC)c3CN1CC2 (stereo not drawn)	inconclusive: 102%
CCOC(=O)/C=C1\SCC(=O)N1CCOc1cccc(Br)c1	active: 79%
CC(=O)Cc1nsc(Nc2ccc(C)cc2)n1	inactive: 101%
O=C(O)c1cccc(N2C(=O)/C(=C/c3ccc(SCc4ccc(Cl)cc4)o3)SC2=S)c1	inconclusive: 87%
COc1ccc(-n2c(N)c(C#N)c3ccc([N+](=O)[O-])cc3c2=O)cc1	inconclusive: 88%
Cc1nn(Cc2ccccc2Cl)c(C)c1N	inconclusive: 107%
CN(C)c1nc(-c2ccccc2)ncc1S(=O)(=O)c1ccccc1	inconclusive: 106%
Cn1c(CSc2nc3ccccc3n2C)nc2ccccc21	inconclusive: 104%
O=C(O)CC/C(=C\c1cc([N+](=O)[O-])ccc1Cl)c1nc2ccccc2s1	inconclusive: 77%
CCN1CCN(C(=O)CCc2nc3ccccc3c(=O)[nH]2)CC1	inconclusive: 105%
CC(C)(C)NC(=O)NC(=O)CSc1ncccn1	inconclusive: 92%
[O-]/C(=C(\C(=S)NCc1ccccc1)[n+]1ccccc1)c1ccc(Cl)s1	inactive: 95%
COc1ccc(NS(=O)(=O)c2cc(NC(=O)c3nc4nc(C)cc(C)n4n3)ccc2C)cc1	inconclusive: 90%
CCOC(=O)c1c[nH]c2c(C)ccc(Cl)c2c1=O	inconclusive: 94%

SMILES	GTP binding activity
O=C(COc1ccc(C(=O)c2ccccc2)cc1)NCC(=O)Nc1ccccc1Br	inactive: 91%
Cc1c(O)ccc(NC(=O)/C=C/c2ccccc2)c1C	inactive: 95%
NC(=O)c1c(NC(=O)C2CCCO2)sc2c1CCCC2 (stereo not drawn)	inactive: 100%
Cc1nc2c(Cl)cc(Cl)cc2[nH]1	inconclusive: 105%
Cc1cc(C)c(C)c(C(=O)c2ccccc2C(=O)O)c1C	active: 123% [activator]
Oc1c(C=Nc2cccc3cccnc23)sc2ccccc12	inconclusive: 119%
CCOC(=O)CNC(=O)c1cc(-c2ccccn2)nc2c(C)c(Cl)ccc12	inactive: 97%
O=C(CSc1nc(-c2ccccc2Cl)ns1)Nc1ccc2c(c1)OCO2	inconclusive: 99%
COc1ccc(CCNC(=O)C(=O)N/N=C/c2cccs2)cc1OC	inactive: 100%
COc1ccc(CN(C)Cc2nc(Cc3cccc(F)c3)no2)c2cccnc12	inconclusive: 98%
Cc1ccc2[nH]c(=O)c(CN(Cc3ccc4c(c3)OCO4)Cc3nnnn3Cc3ccco3)cc2c1	inconclusive: 98%
NC(=O)CSc1ccc(-c2ccc(F)cc2)nn1	inactive: 94%
Cc1cc(Nc2ccc3c(c2)OCCO3)c2cc(Cl)ccc2n1	inconclusive: 99%
CCCC1=NN(C(=O)Cc2ccc(OC)cc2)C(O)(C(F)(F)F)C1 (stereo not drawn)	inactive: 96%
COC(=O)CSC1=C(C#N)C(c2ccccc2OC)C(C(=O)OC)C(=O)N1 (stereo not drawn)	inconclusive: 90%
COc1cccc(/C=N/n2c(N)c(S(=O)(=O)c3cccs3)c3nc4ccccc4nc32)c1	inconclusive: 76%
CCOC(=O)C1=C(CSc2nncn2C)NC(=O)NC1c1cc(OCC)ccc1OCC (stereo not drawn)	inconclusive: 88%
COc1cc2c(cc1NC(=O)COC(=O)/C=C/c1ccccc1)oc1ccccc12	inconclusive: 84%
Cc1cccc(CN2C(=O)N/C(=C/c3ccc(C)s3)C2=O)c1	inconclusive: 124%
O=C(N1CCCC1)C12CCC3CC(CC(C3)C1)C2	inactive: 105%
CC(=O)N1/C(=C/c2ccc(N(C)C)cc2)C(=O)c2ccccc21	inactive: 95%
CC(=O)Nc1sc(/C(C#N)=C/c2ccc(Cl)c(Cl)c2)nc1-c1ccc(C)cc1	inconclusive: 123%
COc1cc(C)c2c(c1C=O)Oc1c(c(C)c(O)c3c1C(O)OC3=O)OC2=O (stereo not drawn)	inactive: 80%
CCN(CC)c1nc(N)c2c(N)n(-c3ccccc3C)c(=S)c(C#N)c2c1C#N	inconclusive: 90%

SMILES	GTP binding activity
COc1cc(C(=S)N2CCOCC2)ccc1OC(=O)/C=C/c1ccco1	inactive: 97%
COc1ccccc1N1CCN(S(=O)(=O)c2cn(C)c(=O)n(C)c2=O)CC1	inconclusive: 101%
O=Cc1ccc2oc3nc4n(c(=O)c3c(=O)c2c1)CCCS4	inconclusive: 88%
O=c1[nH]c(SCc2cccc(Cl)c2)nc2ccccc12	inconclusive: 94%
O=C(Nc1ccc(N2CCN(C(=O)c3ccccc3F)CC2)cc1)c1ncn[nH]1	inactive: 103%
CC(NC(=O)OC(C)(C)C)C(=O)NC(CCC(=O)OCc1ccccc1)C(N)=O (stereo not drawn)	inactive: 99%
Cc1cccc(N=c2c([N+](=O)[O-])nn(-c3ccc(Cl)cc3)n2O)c1	inconclusive: 93%
COC(=O)C1=C(O)CSC1=Nc1cccc(C(F)(F)F)c1	inconclusive: 104%
COC(=O)C1CCN(CC(=O)Nc2sc3c(c2C#N)CCC3)CC1	inconclusive: 91%
CCC(=O)Nc1nc(-c2ccc3c(c2)OCCO3)cs1	inactive: 101%
Cc1cc(C)cc(-n2cc(C(=O)O)c(=O)cc2C)c1	inactive: 97%
COc1ccc(CCNC(=O)[C@@H](NC(N)=O)C(C)C)cc1	inconclusive: 93%
Cc1cc(C)n2nc(C(=O)N(C)C(c3ccccc3)c3ccccc3)nc2n1	inconclusive: 92%
COC(=O)CCC(=O)Nc1cccc([N+](=O)[O-])c1	inconclusive: 92%
COc1ccc(-c2cn(-c3ccccc3)c3[n+]2CCS3)cc1	inactive: 103% and inactive: 104%
Cc1ccccc1NC(=O)CSc1nnc(-c2ccccc2)n1-c1ccccc1	inconclusive: 103%
COc1ccc(NC(=O)CSC2CC(=O)N(c3ccc4c(c3)OCCO4)C2=O)cc1 (stereo not drawn)	inconclusive: 107%
O=C(O)C1CSC(CCc2ccccc2)N1 (stereo not drawn)	inactive: 110%
CC1=NNC(=O)C1C(c1ccccc1)C(C#N)C#N (stereo not drawn)	inconclusive: 93%
Cc1ccc(OCc2ccc(C(=O)NCc3cccnc3)cc2)cc1C	inactive: 90%
CC(C)Oc1ccc(C(=O)N2CCCC2C(=O)O)cc1 (stereo not drawn)	inconclusive: 125%
CC(=O)Oc1ccc2nc(CN3C(=O)c4ccc([N+](=O)[O-])cc4C3=O)oc(=O)c2c1	inconclusive: 87%
CN(Cc1ccccc1)c1nc(N)c([N+](=O)[O-])c(Nc2cccc(F)c2)n1	inactive: 99%
CSc1ncccc1C(=O)NC(C)C1CC2CCC1C2 (stereo not drawn)	inactive: 96%

SMILES	GTP binding activity
O=C(COC(=O)CSc1ccc2ccccc2c1Br)NC1CC1	inactive: 97%
CCOC(=O)/C(C#N)=C/C1=C(N2CCCC2)CC(C)(CC)OC1 (stereo not drawn)	inactive: 102%
CCOc1ccc(CCNC(=O)COC(=O)c2cc(OC)c(OC)c(OC)c2)cc1OCC	inactive: 100%
Cc1cnc(NC(=O)Cc2cccs2)s1	inactive: 97%
C[N+]1(C2CCC3CCCC2C3O)CCCCC1 (stereo not drawn)	inconclusive: 94%
COCCCn1cc(C(=O)c2cc(OC)ccc2OCC(=O)Nc2cc(C)on2)cc(C#N)c1=O	inactive: 99%
CCNc1nc(C23CC4CC(CC(C4)C2)C3)cs1	inactive: 96%
O=S(=O)(O)c1nc2ccccc2n1Cc1ccc(Cl)cc1Cl	inconclusive: 89%
Cc1cc(C)cc(Nc2cc(C)nc3nc(C)nn23)c1	inconclusive: 101%
CS(=O)(=O)N(Cc1ccccc1)c1ccc(C(=O)Nc2cccnc2)cc1	inactive: 102%
COc1ccc(C(=O)Nc2cc3c(cc2C#N)OCO3)cc1S(=O)(=O)NCc1ccco1	inconclusive: 103%
Cc1cccc(-n2c(C)cc(/C=N/NC(=O)c3ccc(CN4CCOCC4)cc3)c2C)c1	inconclusive: 93%
COc1ccc(Cl)c2c1[nH]c1nc(SCc3ccccn3)nnc12	inconclusive: 84%
Cc1c(C(=O)NCCCN2CCOCC2)sc2nc(-c3ccc(F)cc3)cn12	inactive: 100%
CC(C)CC(C(=O)NC1CCCC1)N(Cc1ccc2c(c1)OCO2)C(=O)c1snc(C(N)=O)c1N (stereo not drawn)	inconclusive: 92%
COc1ccccc1CNC(=O)c1cc2c(C)nn(Cc3ccc(F)cc3)c2s1	inconclusive: 106%
O=c1[nH]c2cc([N+](=O)[O-])c([N+](=O)[O-])cc2[nH]c1=O	inconclusive: 86%
C=C1CSc2nc(=O)c3c4c(sc3n21)CCCC4	inconclusive: 89%
COc1ccc(CC(=O)NNS(=O)(=O)c2ccc(F)cc2)cc1OC	inconclusive: 93%
COc1ccc2cc(C(=O)C3CCCN(C(=O)Cc4c(C)noc4C)C3)ccc2c1 (stereo not drawn)	inactive: 94%
COc1ccc(S(=O)(=O)N(C)C)cc1NC(=O)Cc1cccs1	inactive: 99%
